# Laboratory results from PubChem BioAssay AID686978 (National Center for Advancing Translational Sciences (NCATS), 2013).
# About 64,000 (15%) of roughly 420,000 compounds were called active. Inconclusive means that the source gave no clear call. Such entries were picked first, then a sample of the others. Calls come from the whole dose curve; as a rule, active = well fitted inhibition curve with a large enough effect; inconclusive = small, poorly fitted or top-dose-only effect; inactive = flat fitted curve, though single readings scatter. Potencies of inconclusive entries are left out as doubtful fits.
# Assay: qHTS for Inhibitors of human tyrosyl-DNA phosphodiesterase 1 (TDP1): qHTS in cells in absence of CPT; note: nearly all actives have a fitted effect of over 55% in size
# Details: DT40 Tdp1-/- hTDP1 cells, no CPT, ATP luminescence, 48 h; activity change, negative = growth inhibition: at 46.2 µM (top of the series) unless noted
# Summary of the method: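 Chicken DT40 Tdp1-/- cells stably complemented with human TDP1 were seeded at 400 cells/well with DMSO in place of 20 nM camptothecin. After compound pinning, cells grew at least 48 hr at 37 °C; viability read by CellTiter-Glo luminescence.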
# % is set by controls: 0 for no effect and ±100 for the full control effect; potency is the fitted concentration of half-maximal effect; tags give direction and shape of the fitted curve.
SMILES,Potency,"activity change, negative = growth inhibition"
NC(=O)Cn1c(=O)n(-c2ccc(F)c(Cl)c2)c(=O)c2sc3ccccc3c21,"inconclusive [inhibitor, full curve, poor fit]",–
COC(=O)c1cc2c(C)cc3ccc(C)cn3c-2c1C(=O)OC,"inconclusive [inhibitor, single point]",–
Cc1ccc(N2CCN(c3cc(C)nc4c(-c5ccc(Cl)cc5)c(C)nn34)CC2C)cc1 (configuration not stated),inactive,–
CCOc1ccc(/C=N/Nc2nc(C)cs2)c(O)c1,"inconclusive [inhibitor, single point]",–
CCn1nc(C(=O)Nc2ccc3c(c2)OCCO3)c2ccccc2c1=O,"inconclusive [inhibitor, single point]",–
CCc1nc2c(OCc3ccc(F)c(F)c3)cccn2c1N(C)C(=O)C1CC1,"inconclusive [inhibitor, partial curve]",–
O=C(Nc1nc(-c2ccccn2)cs1)c1cccc(S(=O)(=O)N2CCOCC2)c1,active: 2.91 µM,–
COc1ccc(CC(=O)NCCN2CCOCC2)cc1,inactive,–
Cc1ccc(-c2csc3ncnc(SCC(N)=O)c23)cc1,"inconclusive [inhibitor, single point]",–
O=C(NN1C(=O)NC2(CCCCC2)C1=O)c1ccc(-c2ccc(Cl)cc2)o1,"inconclusive [inhibitor, partial curve]",–
Cc1ccccc1NC(=O)Nc1nnc([C@@H]2C[C@H](O)[C@@H](CO)O2)s1,inactive,–
CN1CCCN(C(=O)CNC(=O)c2ccccc2F)CC1,–,inconclusive: -2.52% [inhibitor]
CNC(=O)c1ccc(Nc2nnc(-c3ccc(C)c(S(N)(=O)=O)c3)c3ccccc23)cc1,inactive,–
COc1ccc(OC(C)C(=O)N(C)Cc2nc(-c3ccc(C)cc3)no2)cc1 (configuration not stated),"inconclusive [inhibitor, single point]",–
COc1ccccc1-c1cc(C(F)(F)F)nc(S(=O)(=O)CCCC(=O)NC(C)C)n1,active: 3.26 µM,–
O=C(O)C1CCC(Cn2c(SCc3cc(=O)n4ccccc4n3)nc3ccsc3c2=O)CC1 (configuration not stated),"inconclusive [inhibitor, single point]",–
Clc1ccc2nccnc2c1,active: 0.794 µM,–
Cc1ccc(NC(=O)c2cc(=O)n(Cc3ccccc3)c(=O)[nH]2)cc1C,"inconclusive [inhibitor, single point]",–
COc1ccc(CNS(=O)(=O)CCNCc2ccccc2OC)cc1,inactive,–
Cc1ccc(C)c(N2CCN(C(=O)c3csc4ccccc34)CC2)c1,"inconclusive [inhibitor, single point]",–
O=C(CO)N/N=C/c1cccc(Cl)c1Cl,–,inconclusive: -36.8% [inhibitor]
CC[C@H](C)[C@H](NC(=O)OCc1ccccc1)C(=O)OCC(=O)N1CCN(c2ccc(OC)cc2)CC1,"inconclusive [inhibitor, single point]",–
CC1CN(C(=O)COC(=O)c2ccc(NC(=O)CC#N)cc2)CC(C)O1 (configuration not stated),inactive,–
Cc1ccc(C)c2sc(N3CCN(C(=O)c4ccco4)CC3)nc12,active: 18.4 µM,–

SMILES,Potency,"activity change, negative = growth inhibition"
Cc1ccc(NC(=O)Cn2ncc3c4ccccc4n(Cc4ccccc4)c3c2=O)cc1Cl,"inconclusive [inhibitor, partial curve]",–
CCN1CCN(c2ccc(S(=O)(=O)N3CCCCC3)cc2NC(=O)COc2ccc(F)cc2Cl)CC1,"inconclusive [inhibitor, single point]",–
Cc1cn2c(=O)c(S(=O)(=O)NC(C)c3ccccc3)c(C)nc2s1 (configuration not stated),inactive,–
CCc1ncnc2cc(OC)c(OC)cc12,inactive,–
O=C(C[C@H]1C[C@H](C(=O)N2CCOCC2)[C@@]2(CCC3CCCC3)c3[nH]c4ccc(Cl)cc4c3CCN2C1=O)NCCN1CCOCC1,"inconclusive [inhibitor, single point]",–
O=C(CSc1nnnn1-c1ccc2c(c1)OCO2)NCc1ccccc1,active: 14.6 µM,–
N=c1c(S(=O)(=O)c2ccc(Cl)cc2)cc2c(=O)n3ccccc3nc2n1Cc1ccco1,"inconclusive [inhibitor, partial curve, poor fit]",–
Cc1ccc(/C=C/C(=O)Nc2ccc(N(C)C)cc2)o1,"inconclusive [inhibitor, single point]",–
CCCCc1ccc(NC(=O)CSc2nc(=O)n(CCN3CCOCC3)c3c2CCC3)cc1,inactive,–
O=C(CSCc1ccccc1)N1CCN(c2cccc(C(F)(F)F)c2)CC1,"inconclusive [inhibitor, single point]",–
CN(C)c1ccc(NC(=O)Cc2ccccc2)c2ccccc12,"inconclusive [inhibitor, single point]",–
Cc1ccc(N2CC(C(=O)OCC(=O)Nc3ccccc3C)CC2=O)cc1 (configuration not stated),inactive,–
CC(NC(=O)Nc1ccc2c(c1)OCO2)c1ccncc1 (configuration not stated),inactive,–
COc1ccc(CC(N)c2csc(NC(=O)Nc3ccccc3Cc3ccccc3)n2)cc1 (configuration not stated),active: 16.4 µM,–
COCCNC(=O)CN(c1cc(Cl)ccc1OC)S(C)(=O)=O,inactive,–
CCC1CCCCN1CCCNC(=O)Cn1nc(-c2ccccc2)ccc1=O (configuration not stated),active: 0.0103 µM,–
CC1(C(=O)NC2CCCC2)CCC(=O)N1Cc1ccccc1 (configuration not stated),inactive,–
COc1ccccc1N1CCN(S(=O)(=O)c2ccc3c(c2)NC(=O)C(C)C(=O)N3)CC1 (configuration not stated),"inconclusive [inhibitor, partial curve]",–
CCCS(=O)(=O)c1c(S(=O)(=O)CCC)c2ccc(C(N)=O)cn2c1C(=O)c1ccc(OC)cc1,inactive,–
CCc1ccccc1NC(=O)CSc1nc2n[nH]c(C)c2c(=N)n1-c1cccc(OC)c1,active: 23.1 µM,–
COc1ccc(C(O)c2nc(-c3ccncc3)cs2)cc1 (configuration not stated),active: 10.3 µM,–
CCCS(=O)(=O)NC(=O)C1(C)CCN(C(=O)c2c(F)ccc(C)c2F)C1 (configuration not stated),inactive,–
Cc1onc(-c2ccccc2)c1C(=O)N(C)CC(=O)Nc1ccc(F)c(F)c1F,"inconclusive [inhibitor, single point]",–
